The campaign covered roughly 420,000 compounds. About 64,000 (15%) were called active. The shares of active, inactive and inconclusive entries below differ from those in the screen. Calls follow the shape of the dose curve; as a rule, active = well fitted inhibition curve with a large enough effect; inconclusive = small, poorly fitted or top-dose-only effect; inactive = flat fitted curve, though single readings scatter. Potencies of inconclusive entries are left out as doubtful fits.
Test: qHTS for Inhibitors of human tyrosyl-DNA phosphodiesterase 1 (TDP1): qHTS in cells in absence of CPT; also: nearly all actives have a fitted effect of over 55% in size
Settings: DT40 Tdp1-/- hTDP1 cells, no CPT, ATP luminescence, 48 h; activity change, negative = growth inhibition: at 46.2 µM (top of the series) unless noted
Outline: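 Chicken DT40 Tdp1-/- cells complemented with human TDP1, screened without camptothecin (DMSO vehicle only), 400 cells/well. Compounds pin-transferred, cells incubated at 37 °C for at least 48 hr. Growth read as ATP-dependent luminescence (CellTiter-Glo, 30 min at RT).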
In the case of `COCCOCCn1c(/C=C/c2ccccc2)nc2ccccc21`, the Potency is reported as inconclusive [inhibitor, single point]. In the case of `Cc1nn2c(-c3ccncc3)nnc2c2ccccc12`, the Potency is reported as inconclusive [inhibitor, single point]. With `CC1=NN(c2nc3ccccc3[nH]2)C(=O)/C1=C/N(C)C` the Potency was inconclusive [inhibitor, full curve]. In the case of `NNC(=S)NCCc1ccccc1`, the Potency is reported as inconclusive [inhibitor, single point]. For `COc1ccc(CCNC(c2ccc(F)cc2)c2nnc(-c3ccccc3Cl)o2)cc1OC` (stereo unspecified), the Potency was inconclusive [inhibitor, single point]. For `CN(C)S(=O)(=O)c1ccc(N2CCCC2)c(C(=O)Nc2ccc(F)cc2F)c1`, the “activity change, negative = growth inhibition” value was inactive: -29.3%. In the case of `Cc1ccc(S(=O)(=O)NC2CCSC2=O)cc1C` (stereo unspecified), the “activity change, negative = growth inhibition” value is reported as inactive: 0.0573%. With `O=C(CN1c2ccccc2S(=O)(=O)c2ccccc21)Nc1ccccc1Cl` the Potency was inconclusive [inhibitor, single point]. For `O=C(Cn1cnc2onc(-c3ccc(F)cc3)c2c1=O)Nc1ccc(F)c(Cl)c1`, the Potency was inconclusive [inhibitor, single point]. In the case of `Cn1c(C(C#N)C(=O)c2sc3ccccc3c2Cl)nc2ccccc21` (stereo unspecified), the Potency is reported as active: 16.4 µM. In the case of `Cc1ncoc1C(=O)N1CCCC(C(=O)c2cccc3ccccc23)C1` (stereo unspecified), the Potency is reported as inconclusive [inhibitor, partial curve, poor fit]. In the case of `CCC12CCC3c4ccc(O)cc4CCC3C1CC(O)C2O` (stereo unspecified), the Potency is reported as inconclusive [inhibitor, single point]. With `Cc1ccc(Cc2c(-c3cccc(Br)c3)nc3cc(C)c(Br)c(C)n23)cc1` the Potency was inconclusive [inhibitor, single point]. With `CC(NC(=O)c1ccc2c(c1)OCO2)C1CCCO1` (stereo unspecified) the Potency was inconclusive [inhibitor, full curve]. With `Cc1csc2c(N(C)CCO)ncnc12` the “activity change, negative = growth inhibition” value was inactive: -16.6%. With `O=S(=O)(Nc1ncn[nH]1)c1ccc(Cl)cc1` the “activity change, negative = growth inhibition” value was inactive: -0.832%. For `C[C@]12c3[nH]c4ccccc4c3CCN1C(=O)C(CC(=O)NCC13CC4CC(CC(C4)C1)C3)C[C@@H]2C(=O)N1CCCCC1` (stereo partly specified), the Potency was active: 25.9 µM. For `Cc1c(CC(=O)NC(C)C)c(=O)oc2cc3c(cc12)CCC(C)(C)O3`, the Potency was inconclusive [inhibitor, single point]. With `N#C/C(=C\c1cccnc1)C(=O)Nc1ccccc1` the Potency was inconclusive [inhibitor, partial curve]. In the case of `Cc1ccc(-n2ncc3c2CCCC3NC(=O)c2ocnc2C)cc1C` (stereo unspecified), the Potency is reported as active: 7.31 µM. In the case of `CCCOc1ccc(-c2nonc2NC(=O)c2oc3ccc(Cl)cc3c2C)cc1OCCC`, the Potency is reported as active: 7.31 µM. For `Cc1ccc(-n2c(-c3ccccc3)nnc2-c2cccs2)cc1`, the “activity change, negative = growth inhibition” value was inactive: -5.66%. With `COc1ccc(C(=O)N(Cc2ccco2)C(C(=O)NC2CCCC2)c2ccc(O)cc2)cc1OC` (stereo unspecified) the Potency was inconclusive [inhibitor, single point]. With `COc1ccc(-c2nnc(SCC(=O)O)n2C)cc1OC` the “activity change, negative = growth inhibition” value was inactive: 21.4%. For `O=C(O)CCC(=O)Nc1nc(-c2ccccc2)cs1`, the “activity change, negative = growth inhibition” value was inactive: 4.2%. With `COc1ccc(NC(=O)c2ccc(OCC3CCCO3)cc2)cc1Cl` (stereo unspecified) the Potency was inconclusive [inhibitor, single point]. With `COc1cccc2sc(N(CCCN(C)C)C(=O)C(c3ccccc3)c3ccccc3)nc12` the Potency was inconclusive [inhibitor, single point]. For `CCCc1c(O)nc(SCCN(CCC)CCC)[nH]c1=O`, the “activity change, negative = growth inhibition” value was inactive: 0.828%. For `COc1ccc(C(=O)Nc2c(N)nc(SCC(=O)NCC3CCCO3)[nH]c2=O)cc1` (stereo unspecified), the “activity change, negative = growth inhibition” value was inactive: 8.39%. In the case of `COc1cc(Cc2nc3ccccc3n2C(C)c2nc3ccccc3[nH]2)cc(OC)c1` (stereo unspecified), the Potency is reported as inconclusive [inhibitor, single point]. In the case of `Cc1cccc2cc(C(c3nnnn3Cc3ccccc3)N3CCN(C)CC3)c(=O)[nH]c12` (stereo unspecified), the “activity change, negative = growth inhibition” value is reported as inactive: 8.35%. For `CCOc1cccc(C2c3[nH]c4ccccc4c3CCN2C(=O)CSCc2ccc(F)cc2)c1` (stereo unspecified), the Potency was active: 25.9 µM. For `O=c1c2ccccc2c(-c2ccccc2)nn1Cc1c(Cl)cccc1Cl`, the Potency was inconclusive [inhibitor, single point]. In the case of `CCc1cccc(NC(=O)C2Cc3ccccc3N2C(=O)c2ccccc2)c1` (stereo unspecified), the Potency is reported as inconclusive [inhibitor, single point]. With `Fc1ccc(-c2nn3c(C4COc5ccccc5O4)nnc3s2)cc1` (stereo unspecified) the “activity change, negative = growth inhibition” value was inactive: -27.1%. With `CCOc1ccc(Cl)cc1S(=O)(=O)N1CCN(c2ccc(C)c(C)c2)CC1` the Potency was inconclusive [inhibitor, single point]. In the case of `Cc1noc(C)c1NC(=O)N(C)C[C@@H]1Oc2ccc(NC(=O)C3CCCCC3)cc2C(=O)N([C@@H](C)CO)C[C@H]1C`, the “activity change, negative = growth inhibition” value is reported as inactive: 0.776%. In the case of `O=C(c1ccc2c(c1)N(Cc1c(F)cccc1Cl)C(=O)c1ccccc1S2)N1CCOCC1`, the Potency is reported as inconclusive [inhibitor, single point]. With `NC(=O)C1CCN(C(=O)c2ccc(NC3=NC4CS(=O)(=O)CC4S3)cc2)CC1` (stereo unspecified) the “activity change, negative = growth inhibition” value was inactive: 1.67%. In the case of `Cc1snc2sc(C(=O)c3ccc(Br)cc3)c(N)c12`, the Potency is reported as inconclusive [inhibitor, partial curve, poor fit]. In the case of `CCCNC(=O)c1ccc(-c2nc(CS(=O)(=O)c3ccc(C)cc3)c(C)o2)cc1`, the Potency is reported as inconclusive [inhibitor, single point]. For `Cc1cc(C)n(-c2cccc(C(=O)NCC3Cc4cc(Cl)cc(-c5cnccn5)c4O3)c2)n1` (stereo unspecified), the Potency was inconclusive [inhibitor, single point]. For `Cc1ccc(C(=O)OCC(=O)c2ccc(S(=O)(=O)N3CCCCC3)cc2)o1`, the “activity change, negative = growth inhibition” value was inactive: -2.27%. In the case of `CCOC(=O)N1CCN(Cc2nc3cc(NC(=O)C(C)C)ccc3n2C(C)C)CC1`, the Potency is reported as active: 2.59 µM. With `Cn1c(=O)n(C)c2cc([N+](=O)[O-])c(N3CCN(S(=O)(=O)c4ccc5ccccc5c4)CC3)cc21` the Potency was inconclusive [inhibitor, single point]. With `CCOc1cc(C2C(C#N)=C(N)Oc3cc(N)ccc32)ccc1O` (stereo unspecified) the Potency was inconclusive [inhibitor, single point].
% is scaled to controls: 0 for no effect and ±100 for the full control effect; potency is read from the fitted curve at half-maximal effect; tags tell the direction and shape of the fitted curve.
